Experimental data: article PMC4336329 (PLoS ONE, 2015)
The campaign covered roughly 310,000 compounds. About 2,200 (0.71%) showed an effect of 50% or more. The effect is printed as a negative number. The list shows a part of the results.

The molecules below were run against human ether-à-go-go-related gene (hERG) potassium channel (human, UniProt Q12809) (assay: primary screen, population patch clamp on CHO cells stably expressing hERG).
human ether-à-go-go-related gene (hERG) potassium channel, sequence (Q12809 whole entry, looked up): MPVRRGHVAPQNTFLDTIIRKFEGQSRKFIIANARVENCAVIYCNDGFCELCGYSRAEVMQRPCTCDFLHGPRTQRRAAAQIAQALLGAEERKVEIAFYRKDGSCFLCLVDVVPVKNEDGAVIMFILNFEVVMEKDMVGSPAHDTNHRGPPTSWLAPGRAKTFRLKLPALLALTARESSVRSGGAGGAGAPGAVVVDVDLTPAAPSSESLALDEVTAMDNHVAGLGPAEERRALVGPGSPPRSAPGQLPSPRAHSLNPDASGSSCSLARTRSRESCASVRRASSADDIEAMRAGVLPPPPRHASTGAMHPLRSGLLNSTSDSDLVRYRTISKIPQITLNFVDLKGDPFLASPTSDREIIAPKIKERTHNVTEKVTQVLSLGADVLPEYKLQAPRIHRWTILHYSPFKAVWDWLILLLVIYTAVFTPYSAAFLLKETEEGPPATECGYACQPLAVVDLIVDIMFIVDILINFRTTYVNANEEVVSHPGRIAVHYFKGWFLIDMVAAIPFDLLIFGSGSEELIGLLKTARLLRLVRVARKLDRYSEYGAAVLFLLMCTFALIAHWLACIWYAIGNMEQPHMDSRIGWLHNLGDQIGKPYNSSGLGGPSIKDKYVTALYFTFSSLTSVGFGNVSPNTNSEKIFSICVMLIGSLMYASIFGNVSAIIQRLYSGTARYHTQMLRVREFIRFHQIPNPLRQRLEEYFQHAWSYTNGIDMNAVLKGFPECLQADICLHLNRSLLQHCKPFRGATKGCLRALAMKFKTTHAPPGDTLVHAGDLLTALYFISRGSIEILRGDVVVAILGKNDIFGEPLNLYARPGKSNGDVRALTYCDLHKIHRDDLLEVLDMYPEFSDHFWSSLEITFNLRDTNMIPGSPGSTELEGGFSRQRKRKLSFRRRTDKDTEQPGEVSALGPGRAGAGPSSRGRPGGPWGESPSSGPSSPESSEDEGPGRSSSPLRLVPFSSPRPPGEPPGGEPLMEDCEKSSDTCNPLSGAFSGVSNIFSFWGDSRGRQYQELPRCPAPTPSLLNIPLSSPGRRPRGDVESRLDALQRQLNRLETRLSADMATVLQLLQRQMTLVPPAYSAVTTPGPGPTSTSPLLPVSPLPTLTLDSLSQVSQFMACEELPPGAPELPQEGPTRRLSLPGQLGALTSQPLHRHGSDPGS
In the case of `CC(=O)Nc1ccc(NC(=O)COc2ccc([N+](=O)[O-])cc2)cc1`, the “hERG current change (%, negative = inhibition) at 1uM” value was 15.6%. In the case of `CC(C)(C)c1ccc(C(=O)CCC(=O)OCC(=O)NCCc2ccc(S(N)(=O)=O)cc2)cc1`, the “hERG current change (%, negative = inhibition) at 1uM” value was 6.11%. With `CC1CCCC(C)N1/N=C/c1cc(Br)cc(Br)c1O` (centres unmarked) the “hERG current change (%, negative = inhibition) at 1uM” value was 8.54%. `NC(=S)c1ncc(C(F)(F)F)cc1Cl` was tested, and the “hERG current change (%, negative = inhibition) at 1uM” value was 6.93%. In the case of `Cc1ccc(C2(CCNCc3ccco3)CCOC(C(C)C)C2)cc1` (centres unmarked), the “hERG current change (%, negative = inhibition) at 1uM” value was -1.93%. For `CCOC(=O)c1nnn2c1nc(N1CCN(C)CC1)c1ccccc12`, the “hERG current change (%, negative = inhibition) at 1uM” value was 8.43%. For `COCCNC(=O)CN(CC1CCCO1)C(=O)CCC(=O)Nc1ccccn1` (centres unmarked), the “hERG current change (%, negative = inhibition) at 1uM” value was -1.06%. For `CCOC(=O)CSc1nc2ccccc2c(=O)n1CC1CCCC1`, the “hERG current change (%, negative = inhibition) at 1uM” value was -63.8%. With `Nc1ccc(C(=O)c2ccccc2C(=O)O)cc1Cl` the “hERG current change (%, negative = inhibition) at 1uM” value was 1.35%. In the case of `COC(=O)CCCC(=O)NCC1(N(C)Cc2ccccc2)Cc2ccccc2C1`, the “hERG current change (%, negative = inhibition) at 1uM” value was 9.35%. In the case of `Clc1ccc(-c2nc3ccccn3c2CN2CCSCC2)cc1`, the “hERG current change (%, negative = inhibition) at 1uM” value was 12.4%. In the case of `CC(C)(C)c1ccc(C(=O)NCCc2ccccc2)cc1`, the “hERG current change (%, negative = inhibition) at 1uM” value was 6.65%. With `O=C(/C=C/c1c(F)cccc1Cl)Nc1nn[nH]n1` the “hERG current change (%, negative = inhibition) at 1uM” value was 17.6%. For `O=C(Cn1nnc(-c2ccc(F)cc2)n1)Nc1cccc(S(=O)(=O)N2CCCC2)c1`, the “hERG current change (%, negative = inhibition) at 1uM” value was -2.45%. With `COc1ccc(CN(C(=O)CSc2nnc(-c3ccccc3F)o2)c2ccc(F)cc2)cc1` the “hERG current change (%, negative = inhibition) at 1uM” value was 4.95%. For `Cc1noc(NS(=O)(=O)c2ccc(NC(=O)CSc3nnc4c(n3)[nH]c3ccccc34)cc2)c1C`, the “hERG current change (%, negative = inhibition) at 1uM” value was 13.2%. For `O=C1N=C(N2CCOCC2)S/C1=C\c1ccc(OS(=O)(=O)c2ccccc2)cc1`, the “hERG current change (%, negative = inhibition) at 1uM” value was -24%. With `CCn1ccnc1CN(C)C(=O)CCc1nnc(CCCc2ccccc2)o1` the “hERG current change (%, negative = inhibition) at 1uM” value was 6.13%. In the case of `O=C(NCCc1ccccc1)c1nc(-c2cccs2)no1`, the “hERG current change (%, negative = inhibition) at 1uM” value was 13.8%. For `O=C1COc2ccc(C(=O)COC(=O)c3cnc(Cl)c(Cl)c3)cc2N1`, the “hERG current change (%, negative = inhibition) at 1uM” value was 11.3%. With `COc1ccc(N=C2CC(C)(C)CC(=O)/C2=C(/O)c2ccccc2)cc1` the “hERG current change (%, negative = inhibition) at 1uM” value was 4.8%. With `Fc1cccc(Cl)c1CSc1nnnn1-c1ccc2c(c1)OCO2` the “hERG current change (%, negative = inhibition) at 1uM” value was 6.42%. In the case of `S=C(Nc1ccc(Cl)cc1)N1CCCC1`, the “hERG current change (%, negative = inhibition) at 1uM” value was 16.4%. `CCN(CC)c1ccc(S(=O)(=O)N2CCOCC2)cc1NC(=O)COC(=O)/C=C/c1ccc(C)o1` was tested, and the “hERG current change (%, negative = inhibition) at 1uM” value was -18.1%. With `Cc1ccc2[nH]c(C(=O)N3CCC(C(N)=O)CC3)cc2c1` the “hERG current change (%, negative = inhibition) at 1uM” value was 14.6%. For `O=C(NCc1ccc(OC(F)(F)F)cc1)C1CC(c2ccccc2[N+](=O)[O-])=NO1` (centres unmarked), the “hERG current change (%, negative = inhibition) at 1uM” value was -28.1%. In the case of `O=C(NN1C(=O)/C(=C/c2ccc(O)cc2)SC1=S)c1ccccc1O`, the “hERG current change (%, negative = inhibition) at 1uM” value was 13.9%. In the case of `CC(C)CCN1CC(C(=O)NCc2ccccc2)CC1=O` (centres unmarked), the “hERG current change (%, negative = inhibition) at 1uM” value was 2.42%. In the case of `O=C(Nc1cccc(O)c1)c1cccc(S(=O)(=O)N2CCCC2)c1`, the “hERG current change (%, negative = inhibition) at 1uM” value was -1.06%. `COc1ccc(NC(=O)CSc2ncnc3sc(C)cc23)cc1` was tested, and the “hERG current change (%, negative = inhibition) at 1uM” value was 9.69%. With `O=S(=O)(O)c1nnc2sc3ccccc3n12` the “hERG current change (%, negative = inhibition) at 1uM” value was 20.2%. In the case of `COc1ccccc1NC(=O)COC(=O)CCn1c(C)csc1=O`, the “hERG current change (%, negative = inhibition) at 1uM” value was 11.9%. `O=C(CSCc1ccccc1)N/N=C/c1cc2c(cc1Br)OCO2` was tested, and the “hERG current change (%, negative = inhibition) at 1uM” value was 8.61%. With `COc1c(C)cccc1C(=O)Nc1cc(Cl)ccc1N1CCOCC1` the “hERG current change (%, negative = inhibition) at 1uM” value was 10.6%. For `Cc1nc(NC(=O)/C=C/c2ccccc2)sc1C(=O)Nc1cccc(Cl)c1`, the “hERG current change (%, negative = inhibition) at 1uM” value was 13.3%. For `Nn1c(SCC(=O)Nc2ccc(N3CCOCC3)cc2)nnc1-c1cccc(F)c1`, the “hERG current change (%, negative = inhibition) at 1uM” value was 9.34%. For `CCC(=O)c1ccccc1OCCN1CCN(CC)CC1.O=C(O)C(=O)O`, the “hERG current change (%, negative = inhibition) at 1uM” value was -2.43%. With `CCC(=O)N1CCN(c2ccc(NC(=O)c3ccc4c(c3)OCCO4)cc2)CC1` the “hERG current change (%, negative = inhibition) at 1uM” value was 5.94%. In the case of `O=C1NC(=O)N(Cc2ccc(F)cc2)C(=O)/C1=C\C=C\c1ccco1`, the “hERG current change (%, negative = inhibition) at 1uM” value was 3.89%. `Oc1ccc(N=Nc2cccc(C(F)(F)F)c2)cc1C=Nc1ccc(N2CCOCC2)cc1` was tested, and the “hERG current change (%, negative = inhibition) at 1uM” value was 10%. In the case of `O=C(NC1=NCCS1)c1ccc(C(F)(F)F)cc1`, the “hERG current change (%, negative = inhibition) at 1uM” value was -4.94%. In the case of `CC(C)C1OC2(C)OC(=N)C1(C#N)C(C#N)(C#N)C2c1ccccc1` (centres unmarked), the “hERG current change (%, negative = inhibition) at 1uM” value was 0.121%. `CCCn1c(N2CCC(Cc3ccccc3)CC2)nc2c1c(=O)[nH]c(=O)n2C` was tested, and the “hERG current change (%, negative = inhibition) at 1uM” value was 2.58%. `CCc1nnc(NS(=O)(=O)c2ccc(NC(=S)NC(=O)c3cccnc3)cc2)s1` was tested, and the “hERG current change (%, negative = inhibition) at 1uM” value was 6.64%. With `Cc1ccc(CNC(=O)CSc2n[nH]c(N)n2)cc1` the “hERG current change (%, negative = inhibition) at 1uM” value was 14.3%. With `Cc1ccc(Oc2ccc(S(=O)(=O)N3CCOCC3)cc2C(N)=O)cc1C` the “hERG current change (%, negative = inhibition) at 1uM” value was 1.14%. In the case of `CC12CCC(C(=O)Nc3ccccc3N3CCOCC3)(CC1=O)C2(C)C` (centres unmarked), the “hERG current change (%, negative = inhibition) at 1uM” value was 12.7%. With `Cc1ccccc1-c1cn(-c2ccccc2)c(=S)[nH]1` the “hERG current change (%, negative = inhibition) at 1uM” value was 13.9%. `O=C(CCSc1ccc(Cl)cc1)NN=C1CCCCCC1` was tested, and the “hERG current change (%, negative = inhibition) at 1uM” value was 6.42%. For `O=C(/C=C/c1cccc([N+](=O)[O-])c1)NCCSCc1ccccc1Cl`, the “hERG current change (%, negative = inhibition) at 1uM” value was 4.37%. In the case of `O=C(CNc1ccccc1)N/N=C/c1c[nH]c2ccccc12`, the “hERG current change (%, negative = inhibition) at 1uM” value was -14.6%. For `Cc1ccccc1Cn1cc(S(=O)(=O)c2ccc(C(C)C)cc2)c(=O)c2cc3c(cc21)OCO3`, the “hERG current change (%, negative = inhibition) at 1uM” value was 10.2%. `COc1ccc(NC(=O)Nc2cc3oc4ccccc4c3cc2OC)cc1` was tested, and the “hERG current change (%, negative = inhibition) at 1uM” value was 3.28%. `CN(C)c1nnnn1-c1ccccc1Oc1ncc(C(F)(F)F)cc1Cl` was tested, and the “hERG current change (%, negative = inhibition) at 1uM” value was 14.5%. `CN(C(=O)N1CCN(S(=O)(=O)c2ccccc2)CC1)c1ccccc1` was tested, and the “hERG current change (%, negative = inhibition) at 1uM” value was 4.09%. For `Cc1c(NC(=S)Nc2ccc(Cl)cc2)c(=O)n(-c2ccccc2)n1C`, the “hERG current change (%, negative = inhibition) at 1uM” value was 0.0846%.
